The results in this text go back to the antibiotic and cytotoxicity screens of Wong et al. (2023).

The other results are listed elsewhere or left out.

This assay has as its system S. aureus RN4220. Put plainly: growth inhibition call (relative growth <= 0.2). As to conditions: 50 µM.
On to `C[C@@H]1CN([C@@H](C)CO)C(=O)c2cc(NC(=O)C3CC3)ccc2O[C@@H]1CN(C)Cc1ccc2c(c1)OCO2`, for which the growth inhibition call is “inactive”.

For `CC(C)NC(=O)N(C)C[C@@H]1Oc2ccc(NS(=O)(=O)c3ccccc3)cc2C(=O)N([C@H](C)CO)C[C@@H]1C`, the growth inhibition call was “inactive”.

For `O=C([O-])c1cc(=O)c2c(OCC(O)COc3cccc4oc(C(=O)[O-])cc(=O)c34)cccc2o1.[Na+].[Na+]`, the growth inhibition call was “inactive”. With `CC(C)(O)/C=C/C(=O)[C@](C)(O)[C@H]1[C@H](O)C[C@@]2(C)[C@@H]3CC=C4[C@@H](C=C(O[C@@H]5O[C@H](CO)[C@@H](O)[C@H](O)[C@H]5O)C(=O)C4(C)C)[C@]3(C)C(=O)C[C@]12C` the entry was “inactive”; with `CNC1CCC(c2ccc(Cl)c(Cl)c2)c2ccccc21.Cl` (stereo unspecified), “active”; with `COc1ccc(CN(C)C[C@@H]2OCCCC[C@H](C)Oc3ccc(NS(=O)(=O)c4ccc(C)cc4)cc3C(=O)N([C@@H](C)CO)C[C@@H]2C)cc1`, “inactive”. With `NC(=O)NN=Cc1ccc([N+](=O)[O-])o1` the entry was “active”. For `C[C@H](O)C#Cc1ccc2c(c1)O[C@@H](CN(C)C(=O)Cc1ccccn1)[C@@H](C)CN([C@@H](C)CO)S2(=O)=O`, the growth inhibition call is “inactive”.

Consider `COc1nc(N2CCOCC2)nc(N)c1[N+](=O)[O-]`, for which the growth inhibition call is “inactive”.

In the case of `Cc1ccc(S(=O)(=O)N(C)C[C@H]2OCCCC[C@@H](C)Oc3ccc(NC(=O)Nc4cccc5ccccc45)cc3C(=O)N([C@H](C)CO)C[C@@H]2C)cc1`, the growth inhibition call is “inactive”. Regarding `COc1cccc(C(=O)Nc2ccc3c(c2)C(=O)N(C)[C@H]2CC[C@H](CC(=O)NCCCN4CCOCC4)O[C@H]2CO3)c1`, the growth inhibition call is “inactive”.
